Test results published in PubChem BioAssay (NCATS).
This list was built around the results that the source calls inconclusive (neither active nor inactive); the mix of calls is not that of the screen. Potencies of inconclusive entries are left out as doubtful fits. Active and inactive are the calls of the source. Calls come from the whole dose curve; as a rule, active = well fitted inhibition curve with a large enough effect; inconclusive = small, poorly fitted or top-dose-only effect; inactive = flat fitted curve, though single readings scatter.

test system: Zika virus NS2B-NS3 protease; assay: Primary screen GU AMC qHTS for Zika virus inhibitors (AID 1347154); settings: Zika NS2B-NS3 unlinked protease, AMC fluorogenic substrate; series mostly up to 54.1 µM; note: nearly all actives have a fitted effect of over 70% in size
How it was run: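 Fluorogenic AMC-substrate cleavage by noncovalent NS2B-NS3 protease complex (25 nM, pH 8.0 Tris buffer with Tween 20) followed for 15 minutes at room temperature (~20% conversion). Percent inhibition from ex340/em450 signal change, fitted by 4-parameter Hill equation.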
Potency is the fitted concentration of half-maximal effect; tags give direction and shape of the fitted curve.

| SMILES | Potency |
| --- | --- |
| O=C(O)CCC1CCC(c2cc(F)ccc2F)(S(=O)(=O)c2ccc(Cl)cc2)CC1 (stereo unspecified) | inconclusive [inhibitor, single point] |
| CC(C)n1nc(-c2ccc3oc(N)nc3c2)c2c(N)ncnc21 | inconclusive [inhibitor, full curve] |
| CN(C)CC[C@H](CSc1ccccc1)Nc1ccc(S(=O)(=O)NC(=O)c2ccc(N3CCN(Cc4ccccc4-c4ccc(Cl)cc4)CC3)cc2)cc1[N+](=O)[O-] | inconclusive [inhibitor, partial curve] |
| CC(=O)O[C@]1(C(C)=O)CC[C@@H]2[C@@H]3C[C@H](C)C4=CC(=O)CC[C@]4(C)[C@H]3CC[C@@]21C | inactive |
| O=C1c2c(O)cc(O)cc2OC(c2ccc(O)c(O)c2)C1O (stereo unspecified) | inconclusive [inhibitor, partial curve, poor fit] |
| CC[C@H](NC(=O)[C@H](C)NC)C(=O)N1C[C@@H](O)C[C@H]1Cc1c(-c2[nH]c3cc(F)ccc3c2C[C@H]2C[C@H](O)CN2C(=O)[C@H](CC)NC(=O)[C@H](C)NC)[nH]c2cc(F)ccc12 | active: 17.1 µM |
